Measurements taken from PubChem BioAssay AID504332 (National Center for Advancing Translational Sciences (NCATS), 2011).
Hit rate of the full screen: of about 350,000 compounds, about 31,000 (8.9%) were called active. The shares of active, inactive and inconclusive entries below differ from those in the screen. Calls come from the whole dose curve; as a rule, active = well fitted inhibition curve with a large enough effect; inconclusive = small, poorly fitted or top-dose-only effect; inactive = no such curve, though single readings can be large or run the other way. A potency beside an inconclusive call is a rough fit, not a confirmed value.

What follows are compounds tested against Histone-lysine N-methyltransferase EHMT2 (Homo sapiens) (UniProt Q96KQ7) (assay: qHTS Assay for Inhibitors of Histone Lysine Methyltransferase G9a). Conditions: G9a H3K9 monomethylation, AlphaScreen, 2 h; activity, negative = inhibition: at 59 µM (top of the series) unless noted.
Chain of UniProt Q96KQ7 (Q96KQ7 whole entry, looked up): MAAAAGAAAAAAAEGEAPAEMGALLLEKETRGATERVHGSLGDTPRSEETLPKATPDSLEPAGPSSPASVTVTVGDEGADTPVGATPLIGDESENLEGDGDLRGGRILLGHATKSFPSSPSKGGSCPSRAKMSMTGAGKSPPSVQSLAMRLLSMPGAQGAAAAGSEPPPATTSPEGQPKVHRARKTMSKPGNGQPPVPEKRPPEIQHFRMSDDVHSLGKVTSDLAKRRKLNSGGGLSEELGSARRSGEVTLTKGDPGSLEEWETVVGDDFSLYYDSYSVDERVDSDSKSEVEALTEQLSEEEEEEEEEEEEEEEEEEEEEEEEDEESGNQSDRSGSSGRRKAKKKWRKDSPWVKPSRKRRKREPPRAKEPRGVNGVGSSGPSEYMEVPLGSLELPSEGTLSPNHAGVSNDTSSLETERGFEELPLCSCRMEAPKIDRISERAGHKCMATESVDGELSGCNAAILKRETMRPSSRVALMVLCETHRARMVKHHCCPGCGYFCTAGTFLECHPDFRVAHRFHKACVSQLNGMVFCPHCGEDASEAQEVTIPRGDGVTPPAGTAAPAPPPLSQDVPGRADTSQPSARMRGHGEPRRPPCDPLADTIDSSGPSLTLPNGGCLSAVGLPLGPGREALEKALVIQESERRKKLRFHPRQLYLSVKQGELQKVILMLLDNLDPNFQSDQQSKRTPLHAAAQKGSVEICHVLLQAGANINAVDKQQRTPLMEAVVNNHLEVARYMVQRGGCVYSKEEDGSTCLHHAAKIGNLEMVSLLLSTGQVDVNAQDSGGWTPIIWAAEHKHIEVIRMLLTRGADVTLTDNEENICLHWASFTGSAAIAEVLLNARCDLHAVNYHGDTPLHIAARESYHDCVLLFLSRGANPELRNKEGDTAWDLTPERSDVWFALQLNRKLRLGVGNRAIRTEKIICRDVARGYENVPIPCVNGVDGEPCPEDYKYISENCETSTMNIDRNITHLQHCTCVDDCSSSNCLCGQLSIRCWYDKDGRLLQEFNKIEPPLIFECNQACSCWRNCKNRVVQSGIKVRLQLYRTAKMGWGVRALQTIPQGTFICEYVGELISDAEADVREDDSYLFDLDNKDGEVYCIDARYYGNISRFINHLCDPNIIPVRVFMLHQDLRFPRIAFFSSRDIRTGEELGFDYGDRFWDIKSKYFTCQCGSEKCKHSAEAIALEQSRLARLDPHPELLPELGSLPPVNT
Method in brief: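 Quantitative HTS format: methyltransferase activity on a biotin-tagged H3K9 peptide is measured by AlphaScreen, using a rabbit anti-monomethyl-H3K9 antibody with streptavidin donor and anti-IgG acceptor beads. Final levels are 20 nM enzyme, 500 nM peptide, 20 uM SAM; 2 h RT.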
% is set by controls: 0 for no effect and ±100 for the full control effect; potency is the fitted concentration of half-maximal effect; tags give direction and shape of the fitted curve.
Note: nearly all actives have a fitted effect of over 75% in size.

Structure (SMILES) | Potency | activity, negative = inhibition
Cc1nc(=O)c(-c2ccccc2)c(C)n1-c1ccc(O)c(C(=O)O)c1 | inconclusive: 89.1 µM [inhibitor, single point] | –
CN(C)c1ncc2nc(-c3cc(F)cc(F)c3)c(=O)n(C[C@H]3CCCO3)c2n1 | – | inactive: 6.97% [at 0.501 µM]
CCN(CC(=O)Nc1c(F)cccc1F)C(=O)C1CCN(c2ncnc3sc(C)c(C)c23)CC1 | inconclusive: 56.2 µM [inhibitor, partial curve, poor fit] | –
CCc1ccc(NC(=O)Cn2nc3c4ccccc4n(Cc4ccccc4)cc-3c2=O)cc1 | inconclusive: 4.47 µM [inhibitor, partial curve, poor fit] | –
COC(=O)CCC(=O)OC1(C)C(=O)C2=COC(c3ccc(OC)cc3)=CC2=C(Br)C1=O (stereo not given) | inconclusive: 3.16 µM [inhibitor, single point] | –
Cc1cc(C)cc(-n2cc[nH]c2=S)c1 | active: 0.794 µM | –
COc1ccc(/C(C)=N/NC(=O)c2nnn(-c3nonc3N)c2-c2ccccc2)cc1 | active: 50.1 µM | –
O=C(c1ccc(-c2ccccc2Cl)o1)N1CCN(c2ccccc2O)CC1 | active: 17.8 µM | –
C[C@H](NC(=O)OC(C)(C)C)c1nnc(SCc2c(F)cccc2Cl)o1 | – | inactive: 1.53%
CC(Sc1nnc(Cc2cccs2)n1C1CCCCC1)C(=O)NCc1ccco1 (stereo not given) | inconclusive: 79.4 µM [inhibitor, partial curve, poor fit] | –
NC1=NC2(CCC(c3ccccc3)CC2)n2c(nc3ccccc32)N1 (stereo not given) | inconclusive: 89.1 µM [inhibitor, single point] | –
COc1ccc(OCCOCCN2CCc3ccccc3C2)cc1 | active: 10 µM | –
Cc1nnc(NC(=O)C2CCN(S(=O)(=O)c3cc([N+](=O)[O-])ccc3Cl)CC2)o1 | – | inconclusive: -83.1% [inhibitor] [at 2.33 µM]
Cc1cc(-c2ccccc2C(=O)O)on1 | – | inactive: 1.88%
COc1ccc(S(=O)(=O)N2CCOCC2)cc1NC(=O)COC(=O)C1CC2CCCC(C1)C2=O (stereo not given) | – | inactive: 18.5% [at 12.7 µM]
Cc1ccccc1CSc1nc2n(n1)C(c1cccs1)C1=C(CCCC1=O)N2 (stereo not given) | inconclusive: 89.1 µM [inhibitor, single point] | –
CCN(C(=O)c1coc(=O)c(Br)c1)c1ccc2c(c1)OCO2 | active: 20 µM | –
COc1ccc2c(c1)O/C(=C\c1sccc1C)C2=O | – | inactive: -3.81% [at 102 µM]
Cc1ccnc(NC(=O)/C=C/c2ccccc2Cl)c1 | inconclusive: 89.1 µM [inhibitor, single point] | –
CCOc1ccc(-c2cc(OC(=O)c3ccc(OC)cc3)c3c(C)oc(C)c3c(=O)c2)cc1 | inconclusive: 39.8 µM [inhibitor, partial curve, poor fit] | –
COc1cc2nc(C3CCC3)n(NC(=O)COc3ccccc3)c(=O)c2cc1OC | inconclusive: 89.1 µM [inhibitor, partial curve, poor fit] | –
CCOCCCNC(=O)c1ccc(-n2c(=S)[nH]c3ccccc3c2=O)cc1 | inconclusive: 7.94 µM [inhibitor, partial curve, poor fit] | –
O=[N+]([O-])c1c(NCCO)cc(Sc2nc3ccccc3s2)c2nonc12 | active: 3.55 µM | –
CCc1ccccc1NC(=O)c1cccs1 | inconclusive: 100 µM [inhibitor, partial curve, poor fit] | –

Structure (SMILES) | Potency | activity, negative = inhibition
O=C(c1ccc(CSc2nc3ccncc3n2Cc2ccc(F)cc2)cc1)N1CCCCCC1 | inconclusive: 31.6 µM [inhibitor, partial curve, poor fit] | –
COCCn1nnnc1C(c1cc2cc(C)ccc2[nH]c1=O)N1CCCCCC1 (stereo not given) | active: 4.47 µM | –
O=C(c1cc(-c2ccc(O)cc2)on1)N1CCCc2ccccc21 | inconclusive: 89.1 µM [inhibitor, single point] | –
Cc1ccc(S(=O)(=O)N2CCN(CCOc3cccc(C)c3)CC2)cc1 | – | inactive: 5.05% [at 2.33 µM]
N=C(N)SCc1ncccc1O | active: 17.8 µM | –
Cc1ccc(-c2nnc(N3CCN(C(=O)COc4ccccc4)CC3)c3ccccc23)cc1 | inconclusive: 89.1 µM [inhibitor, single point] | –
CCc1ccccc1NC(=O)Nc1ccc2c(c1)N(CC)C(=O)c1ccccc1S2 | – | inactive: 4.17%
Cc1ccc(-c2nn(-c3ccccc3)cc2C(=O)NCCCN2CCCC2=O)cc1 | – | inactive: -28.8% [at 102 µM]
COc1cc(OC)c(NC2(c3ccccc3)C(=O)c3ccccc3C2=O)cc1Cl | active: 12.6 µM | –
COc1cccc(NC(=O)CSc2nc3cc(OC)c(OC)cc3c3nc(-c4ccccc4)nn23)c1 | inconclusive: 39.8 µM [inhibitor, partial curve, poor fit] | –
S=c1[nH]ncn1/N=C/c1ccc(N2CCOCC2)cc1 | active: 1.78 µM | –
COc1ccc(CONc2ncnc3nonc23)cc1[N+](=O)[O-] | inconclusive: 25.1 µM [inhibitor, single point] | –
CCCCC1OC2(C)OC(=N)C1(C#N)C(C#N)(C#N)C2c1ccccc1 (stereo not given) | active: 44.7 µM | –
Cc1ccc(-n2c(C)cc(/C=N/NC(=O)CC3(C)OCCO3)c2C)c(C)c1 | inconclusive: 25.1 µM [inhibitor, single point] | –
O=C(Nc1ccc(OC(F)(F)F)cc1)c1nc2ccccc2nc1N1CCCCC1 | inconclusive: 11.2 µM [inhibitor, partial curve, poor fit] | –
Cc1ccnc(SCc2cn3c(C)cccc3n2)n1 | – | inconclusive: -80.5% [inhibitor]
Cc1csc(NC(=O)CCc2nc3ccccc3s2)n1 | – | inconclusive: -82.8% [inhibitor]
Cc1cc(C(=O)CSc2nc(N)cc(N)n2)c(C)n1C1CC1 | inconclusive: 31.6 µM [inhibitor, partial curve, poor fit] | –
Cc1cccc(-c2ncc(CN3CCN(CC(C)C)C(CCO)C3)cn2)c1 (stereo not given) | – | inactive: -4.48%
Brc1cccc(OCCn2ccnc2)c1 | active: 8.91 µM | –
COCCNC(=O)CN1CCOc2ccccc21 | inconclusive: 89.1 µM [inhibitor, single point] | –
Cc1nc(Nc2ccc(Cl)cc2)c(C#N)c(=O)[nH]1 | – | inactive: -3.7% [at 102 µM]
CCOC(=O)Cc1csc(NC(=O)CN2CCOCC2)n1 | – | inactive: 4.44% [at 102 µM]
O=C(Cn1c(=O)n(CC2CCCO2)c(=O)c2ccccc21)Nc1ccc(F)cc1F (stereo not given) | – | inactive: 4.92%

Structure (SMILES) | Potency | activity, negative = inhibition
Cc1ccc(Nc2nc(C)cc(C)n2)c(Br)c1 | – | inactive: 33.4% [at 102 µM]
Cc1ccc(NC(NC(=O)c2cccs2)C(Cl)(Cl)Cl)cc1C (stereo not given) | inconclusive: 3.98 µM [inhibitor, single point] | –
O=C(Nc1cccc(F)c1)NC1CCCCC1 | inconclusive: 0.794 µM [inhibitor, single point] | –
N#C/C(=C/c1ccccc1Cl)c1nc(-c2cc3ccccc3oc2=O)cs1 | inconclusive: 50.1 µM [inhibitor, partial curve, poor fit] | –
O=C(NCc1ccccn1)c1cc2n(n1)C(C(F)(F)F)CC(c1ccco1)N2 (stereo not given) | inconclusive: 3.16 µM [inhibitor, single point] | –
N#C/C(=C/N1CCOCC1)c1ccccc1 | – | inactive: -2.33% [at 102 µM]
COc1ccc(-c2cc(C(=O)N3CCN(Cc4ccc5c(c4)OCO5)CC3)on2)cc1OC | – | inactive: -12.3% [at 102 µM]
CCCn1nnnc1NCc1ccc(SC)cc1 | inconclusive: 79.4 µM [inhibitor, partial curve, poor fit] | –
CCCC(=O)NC(c1ccco1)c1c(O)ccc2ccccc12 (stereo not given) | active: 12.6 µM | –
COc1cccc(/C=C/C(=O)OCC(=O)c2c(N)n(C)c(=O)n(C)c2=O)c1 | inconclusive: 0.158 µM [inhibitor, full curve, poor fit] | –
C=CCOc1ccccc1C(=O)/C=C1/C(=O)Nc2ccccc21 | inconclusive: 28.2 µM [inhibitor, full curve] | –
COc1ccc(N2CCN(C(=O)Cn3cnc4sc(C)c(S(=O)(=O)N5CCOCC5)c4c3=O)CC2)cc1 | inconclusive: 89.1 µM [inhibitor, single point] | –
O=C(c1cccs1)[C@@H]1[C@@H]2C(=O)N(Cc3ccc4c(c3)OCO4)C(=O)[C@@H]2C2c3ccccc3C=CN21 (stereo not given in full) | inconclusive: 8.91 µM [inhibitor, partial curve, poor fit] | –
COc1ccc(S(=O)(=O)N(CCO)c2ccccc2CN(C)C/C=C/c2ccc(Cl)cc2)cc1 | inconclusive: 17.8 µM [inhibitor, single point] | –
CCCCn1c(N)c(N(CCOC)C(=O)COC(=O)CCOc2ccc(C)cc2)c(=O)[nH]c1=O | inconclusive: 31.6 µM [inhibitor, single point] | –
O=C(Nc1nsc(-c2ccccc2)n1)c1cccs1 | inconclusive: 25.1 µM [inhibitor, full curve] | –
O=C(Nc1ccccc1)N1CCC2(CC1)CCN(C(=O)c1csnn1)CC2 | – | inactive: -4.76% [at 12.7 µM]
CC(CNC(=O)c1ccc(C(C)(C)C)cc1)CN(C)C (stereo not given) | inconclusive: 89.1 µM [inhibitor, single point] | –
C=CCc1c(C)nc(-c2ccccc2)nc1N/N=C(\C)c1ccccc1 | inconclusive: 39.8 µM [inhibitor, single point] | –
CCOc1ccc(-n2c(=O)c3c(C)c(C)sc3n(Cc3ccc(C(C)(C)C)cc3)c2=O)cc1 | inconclusive: 5.01 µM [inhibitor, single point] | –
Cc1nc(CC(C)C)cc(C(=O)N2CCCC(Nc3ccc(C)c(C)c3)C2)n1 (stereo not given) | inconclusive: 79.4 µM [inhibitor, single point] | –
CCN1C(=O)Cc2cc(S(=O)(=O)N3CCOCC3)ccc21 | inconclusive: 44.7 µM [inhibitor, partial curve, poor fit] | –
